From PubChem BioAssay AID463173 (ICCB-Longwood Screening Facility, Harvard Medical School, 2010) come the findings set out here.

The whole screen tested about 52,000 compounds, of which about 1,700 (3.3%) were called active. No stated cut-off is given here; in the data, active means survival mostly below about 52% (no sharp cut-off); inactive means mostly above about 56%. Some of the results follow.

The subject of the test is Wild type. Nature of the test: S. aureus survival, RN4220 and DeltatarO strains – OD600, teichoic acid synthesis inhibitors, primary screen (AID 463173). The settings on record: S. aureus RN4220 wild type/DeltatarO growth, OD600, 18 h, active compounds read low, screened at 18.75 µg/mL (by protocol).
Take `Cc1ccc(C)c(N2CCN(S(=O)(=O)c3ccc(-c4cc(C(F)(F)F)on4)s3)CC2)c1`: the survival is inactive: 75%. The figure for `COc1cc(OC)c(N(C)C(=O)c2cn(C)c(=O)c3cc(OC)c(OC)cc23)cc1Cl` is inactive: 74%; for `O=C(Nc1nc2c(F)cc(F)cc2s1)c1ccc2c(c1)OCCO2` it is inactive: 100%; for `O=C(CN1C(=O)COc2ccc(S(=O)(=O)N3CCOCC3)cc21)Nc1ccc(F)c(Cl)c1` it is inactive: 100%.

For `O=C(Nc1nc2ccc(F)cc2s1)c1nc(SCc2ccccc2F)ncc1Cl`, the survival is inactive: 85%. For `Cc1c(Cl)cccc1NC(=O)C1CCCN(C(=O)c2cnn(-c3ccccc3)c2-n2cccc2)C1` (centres undefined), the survival is inactive: 82%. The figure for `O=C(NCCc1ccc(Cl)cc1)C(=O)NCC(c1ccc2c(c1)OCO2)N1CCOCC1` (centres undefined) is inactive: 121%; for `Cc1cc(C)n(C(=O)CNC(=O)Cc2ccccc2)n1` it is inactive: 108%; for `Cc1cc(C)c(S(=O)(=O)NCCc2sc(-c3cccnc3)nc2C)c(C)c1` it is inactive: 128%. Consider `O=C(Nc1cc(C(F)(F)F)ccc1Cl)c1cc(-c2cccs2)nc2ccccc12`, for which the survival is inactive: 68%. In the case of `Cn1c(=O)c2cc(C(=O)N3CCN(c4cccc(C(F)(F)F)c4)CC3)sc2c2ccccc21`, the survival is inactive: 77%.

As to `COc1ccc(-c2ccc(/C=N/NC(N)=O)o2)cc1`, the survival was inactive: 114%. The same measure for `Cc1cc(S(=O)(=O)Nc2cc3c(cc2Cl)n(C)c(=O)c(=O)n3C)ccc1F`: inactive: 70%; for `Cc1c(C(=O)Nc2cccc(C(F)(F)F)c2)oc2ccc(S(=O)(=O)N3CCC4(CC3)OCCO4)cc12`: inactive: 74%. On to `COc1ccc(NC(=O)CSc2c3c(nc4ccccc24)CCC3)cc1Cl`, for which the survival was inactive: 142%. The same measure for `CC(C)(C)C(=O)Nc1nnc2n1CCS2`: inactive: 77%.

As to `Cc1ccc2c(c1)N(C(=O)CCC(=O)Nc1ccc(F)cc1F)CC(C)O2` (centres undefined), the survival was inactive: 75%. The figure for `Cc1nn(S(=O)(=O)c2ccc(F)cc2)c(C)c1S(=O)(=O)N1CCCCC1` is inactive: 71%. `CC(C)NC(=O)C1CCCN(S(=O)(=O)c2ccc(-n3cnnn3)cc2)C1` (centres undefined): the survival was inactive: 103%. The figure for `CC1CCc2c(sc3nc(C(C)C)n4c(SCC(=O)NCc5ccco5)nnc4c23)C1` (centres undefined) is inactive: 104%; for `CC(C)(C)c1ccc(C(=O)N2CCC(c3noc(-c4ccc(S(=O)(=O)N5CCCC5)cc4)n3)CC2)cc1` it is inactive: 87%. As to `Cc1ccccc1CNC(=O)CCc1cn(Cc2ccccc2C)c2ccccc12`, the survival is inactive: 85%. Take `CCN(CC)S(=O)(=O)c1ccc(NC(=O)c2ccc3c(=O)n4c(nc3c2)CCCCC4)cc1`: the survival was inactive: 73%. On to `CCOc1ccc(NC(=O)c2ccc3c(c2)nnn3C2CCCC2)cc1`, for which the survival is inactive: 124%.
